{"source": "PubChem BioAssay (NCI)", "note": "“And” between values parts separate entries of the source, which are not always exact repeats. Equal entries are not always repeated.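 All cell lines were grown in 96-well plates and treated with compound for 48 hours. Here, GI50 denotes the concentration required for 50% inhibition of growth. TGI denotes the concentration required for complete inhibition of growth.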", "data": [{"system": "NCI-H322M lung", "assay": "growth of human tumour cells (NCI), 48 h", "units": {"GI50": "µM"}, "values": [{"compound": "Cc1ccc(C2=C(Cl)C(=O)C(c3ccc(C)cc3)=C(Cl)C2=O)cc1", "TGI": "> 100 µM"}, {"compound": "COC(=O)CC1CC2(C(=O)OC)c3[nH]c4ccccc4c3CCN2C1=O", "note": "(stereo not drawn)", "TGI": "> 100 µM"}, {"compound": "C(=C\\c1c2oc(-c3ccccc3)cc(-c3ccccc3)c-2c2ccccc12)/C=C1\\c2ccccc2-c2c(-c3ccccc3)cc(-c3ccccc3)[o+]c21", "TGI": "> 100 µM"}, {"compound": "Cc1ccc(NCCN(C)C)c2c(=O)c3cc(O)ccc3sc12", "TGI": "18.3 µM"}, {"compound": "OCC#Cc1ccccc1C#Cc1ccc(C#Cc2ccccc2)cc1", "GI50": 18.9, "TGI": "39.9 µM"}, {"compound": "C=C(Cn1c2ccccc2c(=O)c2ccccc21)c1ccc(C(=O)Nc2ccccc2N)cc1", "GI50": "> 100", "TGI": "> 100 µM"}, {"compound": "O=C1CCS/C(=N/S(=O)(=O)c2ccc(N3N=C4c5ccccc5CC4C3c3cccs3)cc2)N1Cc1ccccc1", "note": "(stereo not drawn)", "GI50": 12.8, "TGI": "31.2 µM"}, {"compound": "O=C1C=C/C(=C/[C@H]2SSC=C[C@]23C=CC(=O)C3)C1", "TGI": "> 85.1 µM"}, {"compound": "C=C1CC/C=C(\\C)CC[C@H](C(=C)C)[C@@H](O)/C=C(/CO)CCC1O", "note": "(stereo partly drawn)", "GI50": 48.5, "TGI": "> 100 µM"}, {"compound": "N/C(=N\\C(N)=N\\c1nc2ccccc2s1)c1cnccn1", "GI50": 3.01, "TGI": "> 100 µM"}, {"compound": "Cc1cc2occ(S(=O)(=O)NC(=O)Nc3ccc(Cl)cc3)c(=O)c2c(=O)o1", "TGI": "> 100 µM"}, {"compound": "Clc1ccc2c(NCCCN3CCN(c4nc(N5CCOCC5)nc5ccccc45)CC3)ccnc2c1", "GI50": 2.22, "TGI": "4.92 µM"}, {"compound": "Cc1cc2c(cc1Cl)Sc1n[nH]c(=O)n1S2(=O)=O", "TGI": "> 100 µM"}, {"compound": "COc1ccc2c(c1)CC[C@@H]1C2CC[C@]2(C)C(=C=CP(=O)(O)O)CCC12", "note": "(stereo partly drawn)", "TGI": "> 100 µM"}, {"compound": "COc1ccc(/C=C/C(C)=N/OCC(=O)Nc2ccc(Cl)cc2)cc1", "GI50": 3.67, "TGI": "> 88.1 µM"}, {"compound": "O=CC1=CCC2c3[nH]c4ccccc4c3CCN2C1", "note": "(stereo not drawn)", "TGI": "391 µM"}, {"compound": "CNCc1cccc2c1OCCOCCOCCC(C)S(=O)(=O)c1ccc(cc1)-c1cnc(N)c(n1)C(=O)N2", "note": "(stereo not drawn)", "GI50": 1.59, "TGI": "6.56 µM"}, {"compound": "C=C(Cl)[C@@](Cl)(CBr)CC[C@@H](Br)C(C)(C)Cl", "TGI": "2.9 µM and 1.42 µM"}, {"compound": "CCOc1ccc(Nc2nc(-c3c(C)nc4ncccn34)cs2)cc1", "GI50": 0.0584, "TGI": "26.9 µM"}, {"compound": "Cc1cc(Nc2ccc(Cl)cc2)nc(NCCCNc2ccnc3cc(Cl)ccc23)n1", "GI50": 1.57, "TGI": "3.02 µM"}, {"compound": "Nc1nc(=S)[nH]c(C(=O)Nc2nccs2)c1-c1ccccc1", "TGI": "> 100 µM"}, {"compound": "Fc1ccc(-c2nn3c(COc4ccc(Cl)cc4)nnc3s2)cc1Oc1ccccc1", "GI50": 36.9, "TGI": "> 72.2 µM"}, {"compound": "NC(N)=N/N=C/c1c(-c2ccncc2)nc2sc(Cl)cn12", "GI50": 2.32, "TGI": "7.16 µM"}, {"compound": "COc1cc(/C=C2/Oc3c(OC)cccc3C2=O)ccc1O", "TGI": "> 100 µM"}, {"compound": "CC(=O)N1c2cc(N=NN(C)C)ccc2NC(=O)CC1C", "note": "(stereo not drawn)", "TGI": "> 100 µM"}, {"compound": "CC(=O)C(C(C)=O)[C@H]1OC(C)(C)O[C@H]1[C@H]1COC(C)(C)O1", "TGI": "> 100 µM"}, {"compound": "Cc1nc(-n2nc(-c3ccccc3)cc2-c2ccccc2)sc1C(=O)/C=C/c1ccccc1", "TGI": "> 100 µM"}, {"compound": "COc1cc2c(cc1OC)C(=O)N(c1ccc(OCCN3CCCC3)cc1)C2=O", "TGI": "> 100 µM"}, {"compound": "O=C(Oc1ccc2c(c1)CN(Cc1ccccc1)CO2)c1ccccc1", "TGI": "32.9 µM"}, {"compound": "COc1ccc(/C(CC2OC(=O)c3ccccc32)=N\\NC(N)=O)cc1", "note": "(stereo not drawn)", "TGI": "> 100 µM"}, {"compound": "COC(=O)c1sc(=NC(=S)N2CCCCC2)sc1C(=O)OC", "TGI": "> 100 µM"}, {"compound": "NNC(=O)N/N=C1\\CN(c2ccc(Cl)cc2Cl)C(=O)C(=O)C1c1nc2ccccc2o1", "note": "(stereo not drawn)", "TGI": "> 100 µM"}, {"compound": "CSc1nc(C)c2c(n1)N(c1ccc(Cl)cc1)CC2", "TGI": "> 100 µM"}, {"compound": "Cc1ncc(CSC(=N)N)n1Cc1ccccc1", "TGI": "> 100 µM"}, {"compound": "O=NN(CCCl)C(=O)NC1CCCCC1", "GI50": 179, "TGI": "168 µM and 257 µM"}, {"compound": "COC1OC(C(=O)O)C2OC(C)(C)OC12", "note": "(stereo not drawn)", "TGI": "> 100 µM"}, {"compound": "Nc1ccc(C(=O)/C=C/c2ccccc2O)cc1", "TGI": "> 100 µM"}, {"compound": "Nc1nc(=S)c2[nH]cnc2[nH]1", "TGI": "> 100 µM and 229 µM and > 250 µM"}, {"compound": "CC1(Cl)CC(C)(/C=C/Cl)C(Cl)CC1Cl", "note": "(stereo not drawn)", "TGI": "36.8 µM"}, {"compound": "CSc1nc[nH]c1C(N)=S", "TGI": "> 100 µM"}, {"compound": "[Cl-].[Gd+3].[O-]/N=C(\\c1ccccc1)c1ccccn1.[O-]/N=C(\\c1ccccc1)c1ccccn1.[O-]/N=C(\\c1ccccc1)c1ccccn1", "GI50": 38.7, "TGI": "> 100 µM"}, {"compound": "CCCCC[C@@H](C/C=C/CCC(=O)NC/C(=C/Cl)[C@H]1C(=O)C(C)(C)C(=O)[C@@H](C)[C@@]1(C)O)OC", "GI50": 27.7, "TGI": "73.5 µM"}, {"compound": "Nc1ncc(C2[C@H](CNC(=O)c3cc(Br)c[nH]3)C(CNC(=O)c3cc(Br)c[nH]3)[C@@H]2c2cnc(N)[nH]2)[nH]1", "note": "(stereo partly drawn)", "GI50": "> 50", "TGI": "> 50 µM"}, {"compound": "CN(C)C(=O)Oc1ccc(C(=S)Nc2ccccc2)cc1", "TGI": "> 100 µM"}, {"compound": "CCOC(=O)c1cc2c3c(cc(OC)c2[nH]1)N(C(=O)OCC)CC3", "TGI": "> 100 µM"}, {"compound": "COc1cc(OC)cc(-c2ccc(-c3ccc(C(=N)N)cn3)s2)c1", "GI50": 1.74, "TGI": "3.22 µM"}]}]}
